# From PubChem BioAssay AID686979 (National Center for Advancing Translational Sciences (NCATS), 2013)
# “And” between values parts separate entries of the source, which are not always exact repeats. Equal entries are not always repeated. Hit rate of the full screen: of about 420,000 compounds, about 50,000 (12%) were called active. Inconclusive results, whose numbers are uncertain, are shown with a selection of clear calls. Calls come from the whole dose curve; as a rule, active = well fitted inhibition curve with a large enough effect; inconclusive = small, poorly fitted or top-dose-only effect; inactive = flat fitted curve, though single readings scatter. Potencies beside an inconclusive call are fits to weak or partial responses and may not hold up.
# Assay: qHTS for Inhibitors of human tyrosyl-DNA phosphodiesterase 1 (TDP1): qHTS in cells in presence of CPT; note: nearly all actives have a fitted effect of over 55% in size
# Conditions: chicken DT40 Tdp1-/-;hTDP1 cells + 20 nM CPT, ATP luminescence, 48 h; activity change, negative = growth inhibition: at 46.2 µM (top of the series)
# Method in brief: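 Chicken DT40 Tdp1-/- cells stably complemented with human TDP1 were seeded at 400 cells/well in medium containing 20 nM camptothecin, exposed to pin-transferred compounds, and grown at 37 °C for at least 48 hr. Viability was read as ATP luminescence.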
# % is set by controls: 0 for no effect and ±100 for the full control effect; potency is the fitted concentration of half-maximal effect; tags give direction and shape of the fitted curve.
SMILES,Potency,"activity change, negative = growth inhibition"
Cc1cc(NC(=O)c2ccccc2F)nc2c1c(=O)oc1ccccc12,"inconclusive: 18.4 µM [inhibitor, single point]",
NS(=O)(=O)c1ccc(NCc2ccccc2OCc2ccc(F)cc2)cc1,"inconclusive: 16.4 µM [inhibitor, partial curve, poor fit]",
CC(C)(C)c1ccc(S(=O)(=O)NCC(=O)Nc2ccc(-c3nc4ccccc4s3)cc2)cc1,,inactive: -3.39%
Fc1ccc2nc(-c3ccccc3)nc(SCc3nnc(-c4ccccc4)o3)c2c1,"inconclusive: 25.9 µM [inhibitor, single point]",
Cc1ccc(OCC(O)Cn2c3ccccc3c3ccccc32)cc1 (centres undefined),"inconclusive: 29.1 µM [inhibitor, single point]",
Cc1nc(SCC(=O)NC2CCCC2)c2oc3ccccc3c2n1,"inconclusive: 23.1 µM [inhibitor, partial curve]",
NS(=O)(=O)c1ccc(CCNC(=O)Cn2c(=O)c3cccn3c3ccc(F)cc32)cc1,,inactive: 9.37%
COc1ccc2c(c1)CC(C(=O)Nc1c(C)cc(C)cc1C)CO2 (centres undefined),"inconclusive: 16.4 µM [inhibitor, single point]",
COc1cccc(-c2ccc3ncnc(NCCN4CCOCC4)c3c2)c1,"inconclusive: 29.1 µM [inhibitor, single point]",
COc1ccc(CCNC(=O)Nc2ccc3c(c2)c(=O)n(C)n3C)cc1OC,,inactive: 0.818%
O=C(CSC1CC(=O)N(c2ccc(C(=O)O)cc2)C1=O)Nc1ccc(Cl)cc1 (centres undefined),"inconclusive: 20.6 µM [inhibitor, single point]",
COC(=O)C1(CC2CC(c3ccc(Cl)cc3)=NO2)CCN(C(=O)OC(C)(C)C)CC1 (centres undefined),active: 25.9 µM,
CN1C2C(Br)CCCCN2c2ccc(F)cc2S1(=O)=O (centres undefined),,inactive: -4.42%
CN1C(=O)C(c2nnc(Nc3cccc4ccccc34)s2)C2CC1(C)Oc1ccccc12 (centres undefined),"inconclusive: 18.4 µM [inhibitor, partial curve]",
O=S1(=O)[C@H]2C[C@@H]3C=C[C@@]2(CN1Cc1cccc(F)c1)O3,"inactive and inconclusive: 35.5 µM [inhibitor, single point]",
Cc1cc2ccccn2c1C(=O)c1ccccc1F,"inconclusive: 20.6 µM [inhibitor, single point]",
CC(C)(Oc1ccc(Cl)cc1)C(=O)NCC1CCCO1 (centres undefined),,inactive: 1.75%
O=C(Nc1cccc(F)c1)C1CCN(c2nc3ccccc3nc2C(F)(F)F)CC1,active: 18.4 µM,
CC(C)(C)SC(=O)CC1NS(=O)(=O)OC2CCCCC12 (centres undefined),"inconclusive: 29.1 µM [inhibitor, partial curve, poor fit]",
O=C(Nc1ccccc1Cl)c1cccc(COc2cc(Cl)ccc2Cl)c1,"inconclusive: 18.4 µM [inhibitor, single point]",
CC(C)(C)c1ccc(Cn2nnc3c(=O)[nH]c(C4CCN(C(=O)c5ccco5)CC4)nc32)cc1,,inactive: -20.2%
COc1cc(S(=O)(=O)n2c(C)nc3ccccc32)ccc1F,"inconclusive: 29.1 µM [inhibitor, single point]",
CCC(c1nnc(SCc2nc3ccccc3s2)n1Cc1ccccc1)N(C)C (centres undefined),,inactive: -25.7%

SMILES,Potency,"activity change, negative = growth inhibition"
COc1ccc2c(c1)nc(SCC(O)c1ccccc1)n2C (centres undefined),,inactive: -7.12%
Nc1scc2c(C(=O)N/N=C/c3ccc(Cl)cc3)nn(-c3ccccc3)c(=O)c12,active: 8.2 µM,
CCOC(=O)C(C)NC(=O)CCc1nnc2ccc(N3CCC(C)CC3)nn12 (centres undefined),"inconclusive: 18.4 µM [inhibitor, single point]",
CCOc1ccc(N(C(C)C(=O)N2CCCC2)S(C)(=O)=O)cc1 (centres undefined),"inconclusive: 29.1 µM [inhibitor, single point]",
Cc1cc(C#N)c(C)n1-c1cc(S(=O)(=O)N2CCOCC2)ccc1N1CCCC1,active: 16.4 µM,
COc1cccc(NC(=O)CSC2=Nc3ccccc3C3=NC(CCC(=O)NC4CCCCC4)C(=O)N23)c1 (centres undefined),"inconclusive: 25.9 µM [inhibitor, single point]",
COC(=O)[C@@]1(C)[C@H]2C(=O)N(Cc3ccccc3)C(=O)[C@H]2[C@H]2CN=C(SCc3ccccc3)N21,"inconclusive: 29.1 µM [inhibitor, single point]",
CCOC(=O)C1=C(CC)OC(N)=C(C#N)C1c1cc(OC)ccc1OC (centres undefined),,inconclusive: -33.5% [inhibitor]
COCC(=O)N1CCC2(CCN(Cc3ccncc3)CC2)CC1,,inactive: 21.7%
COc1cc(/C=C2\SC(=Nc3ccccc3OC)NC2=O)ccc1O,"inconclusive: 13 µM [inhibitor, single point]",
COc1ccc(C2c3ccc(O)cc3Oc3ncn4nc(-c5ccncc5)nc4c32)cc1OC (centres undefined),"inconclusive: 29.1 µM [inhibitor, single point]",
CCOC(=O)Nc1nc(-c2ccc(F)cc2F)cs1,"inconclusive: 9.2 µM [inhibitor, partial curve]",
COc1cc([N+](=O)[O-])ccc1NC(=O)CCCOc1cccc(C)c1C,,inactive: -7.84%
COc1ccc(OC)c(NC(=O)CCCOc2cc(=O)n(C)c3ccccc23)c1,"inconclusive: 29.1 µM [inhibitor, single point]",
CC1CN(C(=O)CCC(=O)NC2CCCCC2)c2ccccc2S1 (centres undefined),"inconclusive: 20.6 µM [inhibitor, partial curve, poor fit]",
Cc1c(C)c2c(OCC(=O)NCC(C)C)cc3c(c2oc1=O)CCC(C)(C)O3,"inconclusive: 29.1 µM [inhibitor, single point]",
Cc1ccc(C(=O)COC(=O)CNC(=O)c2ccccc2)s1,,inactive: -18.3%
CCOc1ccc(CNc2cccc(SC)c2)cc1,,inactive: 1.13%
Cc1ccc2c(Cl)cc(Cl)c(OCC(=O)Nc3cc(S(=O)(=O)N(C)C)ccc3C)c2n1,active: 23.1 µM,
CCCCCOc1ccc(/C=C/c2c([N+](=O)[O-])c(=O)n(C)c(=O)n2C)cc1,active: 18.4 µM,
Cc1ccc(-c2nn(-c3ccccc3)cc2/C=N/NC(=O)c2ccc3c(c2)OCO3)cc1,"inconclusive: 29.1 µM [inhibitor, single point]",
COc1cccc(-c2nc(N3CCN(Cc4ccccc4)CC3)c3ccccc3n2)c1O,"inconclusive: 20.6 µM [inhibitor, single point]",
O=[N+]([O-])c1ccc(N2CCCCC2)c(Cl)c1N1CCCCC1,,inactive: -6.11%

SMILES,Potency,"activity change, negative = growth inhibition"
Cc1c(C(=O)NCC2COc3ccccc3O2)oc2ccc(S(=O)(=O)N(C)C3CCCCC3)cc12 (centres undefined),"inconclusive: 29.1 µM [inhibitor, single point]",
COc1ccc2sc(NC(=O)CC(C)C)nc2c1,"inconclusive: 29.1 µM [inhibitor, single point]",
COCc1cc(C)nc(SCC(=O)Nc2ccccc2C)c1C#N,active: 7.31 µM,
CC(C)c1ccc(/C=C2\NC(=S)N(Cc3cccnc3)C2=O)cc1,"inconclusive: 9.2 µM [inhibitor, partial curve, poor fit]",
CNc1cccc(-c2cc(OC)ccc2OC)n1,"inconclusive: 20.6 µM [inhibitor, single point]",
CCC1Oc2ccc(C)cc2N(CC(=O)NCCC2=CCCCC2)C1=O (centres undefined),,inconclusive: -32.2% [inhibitor]
Nc1ccc(S(=O)(=O)c2ccc(N)cc2)cc1,"inconclusive: 18.4 µM [inhibitor, single point]",
COc1ccc(S(=O)(=O)N2CCC(C(=O)Nc3ccc(Oc4ccccc4)cc3)CC2)cc1OC,"inconclusive: 4.61 µM [inhibitor, single point]",
O=C(N/N=C/c1cccc([N+](=O)[O-])c1O)C(O)(c1ccccc1)c1ccccc1,"inconclusive: 29.1 µM [inhibitor, single point]",
COc1ccccc1NC(=S)NC(=O)CCc1ccccc1,,inactive: -1.36%
CC(SC1=NCCN1S(=O)(=O)c1ccc(F)cc1)c1ccccc1 (centres undefined),"inconclusive: 25.9 µM [inhibitor, single point]",
O=C(CN1CCOCC1)NN=Cc1ccc([N+](=O)[O-])o1,active: 20.6 µM,
Cc1ccc(S(=O)(=O)N(Cc2ccc(Cl)cc2)c2ccccc2C(=O)NCc2cccnc2)cc1,active: 18.4 µM,
Cc1ccc(S(=O)(=O)N2CCOCC2)cc1NC(=O)COC(=O)c1cncc(Br)c1,,inactive: -15.1%
CCCCSCCCNC(=O)c1cn(CC)c2ccc(S(=O)(=O)N3CCOCC3)cc2c1=O,"inconclusive: 25.9 µM [inhibitor, single point] and inconclusive: 29.1 µM [inhibitor, single point]",
O=C1OC(c2ccccc2)c2ccc3ccccc3c21 (centres undefined),"inconclusive: 20.6 µM [inhibitor, single point]",
CCOc1ccc(-n2cc(-c3ccccc3)c3c(=O)[nH]cnc32)cc1,,inactive: -5.6%
CCCc1nc2ccccc2c(C(=O)OCC(=O)NC2CC2)c1CC,"inconclusive: 29.1 µM [inhibitor, single point]",
N#C/C(=C\c1ccccc1)C(=O)N(c1ccccn1)C1CCCCC1,"inconclusive: 29.1 µM [inhibitor, single point]",
Nc1c2c(nc3ccc(Br)cc13)N(c1ccccc1)CC2,"inconclusive: 14.6 µM [inhibitor, single point]",
COc1cccc2c1C(=O)/C(=C\c1ccc(N(C)C)cc1)C2,"inconclusive: 25.1 µM [inhibitor, single point]",
CCn1c(SCc2nc3ccccc3c(=O)[nH]2)nnc1-c1ccncc1,"inconclusive: 4.61 µM [inhibitor, partial curve]",
C[C@@H]1CN([C@@H](C)CO)C(=O)c2cc(-c3ccccc3F)cnc2O[C@H]1CN(C)Cc1cccc(F)c1,"inconclusive: 29.1 µM [inhibitor, single point]",
